Here are results for 86 sequences from the supplement of paper PMC3334620.

Whole data set: some 33,000 sequences, median “E-score (-0.5 to 0.5)” near -0.036, cut for the highest 2% near 0.37. The list shows a part of the results.

This test has as its target T1, Yer064c (UniProt P40041).
T1 sequence: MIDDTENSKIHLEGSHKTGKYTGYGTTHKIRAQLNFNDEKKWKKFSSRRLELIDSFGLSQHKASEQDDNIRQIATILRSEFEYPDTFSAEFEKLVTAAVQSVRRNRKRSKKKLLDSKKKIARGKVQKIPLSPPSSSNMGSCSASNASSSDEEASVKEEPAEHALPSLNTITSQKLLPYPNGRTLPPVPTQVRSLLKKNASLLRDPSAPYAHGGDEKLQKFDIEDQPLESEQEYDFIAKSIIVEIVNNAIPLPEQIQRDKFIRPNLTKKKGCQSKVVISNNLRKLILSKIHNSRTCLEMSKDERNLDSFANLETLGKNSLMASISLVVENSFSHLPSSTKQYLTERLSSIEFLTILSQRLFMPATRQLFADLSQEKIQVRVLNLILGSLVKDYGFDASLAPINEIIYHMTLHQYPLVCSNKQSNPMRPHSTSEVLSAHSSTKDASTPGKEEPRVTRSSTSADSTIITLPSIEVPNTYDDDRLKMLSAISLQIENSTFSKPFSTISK
Kind of test: PBM E-score (8-mer binding enrichment) (E-score (-0.5 to 0.5)); higher = stronger / more preferred TF binding; most listed sequences are background and not binding sites. Particulars: protein concentration: 200 nM; construct: GST-full length. The method in brief: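 E-scores (a modified Wilcoxon-Mann-Whitney statistic) were assigned by the Universal PBM Analysis Suite to every ungapped eight-base word pooled with its reverse complement. The input came from universal all-10-mer Agilent arrays made double-stranded by primer extension and probed with GST-tagged yeast transcription factors at about 100-200 nM. Fluorescent anti-GST detected bound protein, and masliner normalised the scans.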
With AATACCGC, the “PBM E-score” value is -0.136.
Consider CCACTAGG, for which the “PBM E-score” value was -0.223.
Then CATTGACC, with -0.153.
Then ACTTCCAT, with 0.0833; and GGGTCCTA, with -0.243.
The figure for GGTCGCAC is -0.269; for ATTTTCCA it is -0.0878.
For CGACAACA, the “PBM E-score” value was -0.0357.
Then CCAATAAG, with -0.0633; and GCTGTGCC, with -0.251; and GAGCTACC, with -0.196.
With GAGAAGCC, the “PBM E-score” value was -0.201.
In the case of TGCCCGAA, the “PBM E-score” value was -0.127.
In the case of CCACGGAA, the “PBM E-score” value is -0.0227.
Then GAAGTCGC, with 0.26; and GTATCCGA, with -0.202; and ACGCCTTA, with -0.0171.
Then AAAACGAG, with -0.0838; and CGTCAGTA, with 0.0514; and CCGGCGAG, with -0.131.
Then GAGGGAGC, with -0.3; and AGGTTTAA, with 0.202; and TGATATAA, with -0.103.
For ATCCCCTG, the “PBM E-score” value is -0.208.
In the case of ACTACAGA, the “PBM E-score” value was found to be 0.211.
For ACTGCTTG, the “PBM E-score” value turned out to be 0.00264.
Turning to GCCTCTCC, the “PBM E-score” value is -0.416.
Take AATATTAG: the “PBM E-score” value was -0.00511.
Then GTCATCAC, with 0.248; and ATCGCGCA, with -0.0614; and GAACACAA, with 0.0189.
The figure for AAGCCATC is 0.169.
For ATGCTGAA, the “PBM E-score” value came out at 0.108.
On to CAGCCGAC, for which the “PBM E-score” value came out at 0.0244.
Then ATTAGTTA, with 0.153; and AGACCTGA, with 0.0539.
For the sequence CACGTCCA, the “PBM E-score” value is -0.198.
Then TCCTTAGA, with 0.0256.
AGACTATC: the “PBM E-score” value was 0.35.
The figure for ATTCAGTG is 0.214; for AGGCGTGC it is -0.184; for TAGGGAGA it is -0.103.
Then ACAGTAGG, with -0.228.
With AGCGCACG, the “PBM E-score” value is -0.207.
Take AACACTGA: the “PBM E-score” value is 0.117.
The figure for GCAGAGCC is -0.246.
On to CTATTGCC, for which the “PBM E-score” value is -0.282.
AACTCATC: the “PBM E-score” value stood at 0.33.
With GGGCTAAC, the “PBM E-score” value amounted to 0.0488.
Then CGGCGTGC, with -0.286; and AGAATCAA, with 0.243.
Then GTAATCCA, with 0.146.
Then AACGGAAG, with -0.169; and CCGTTCAA, with -0.24; and CACGCTAG, with 0.0352.
In the case of CCGAAACC, the “PBM E-score” value is -0.277.
As for ACTCCATG, the “PBM E-score” value stood at 0.221.
The figure for GTGCTACA is -0.0701; for CTTGGCCC it is -0.246; for GGATCCCC it is -0.351.
CATCTGCA: the “PBM E-score” value is -0.00401.
Take AGCTTGTG: the “PBM E-score” value is -0.0804.
The figure for GTTGCCCA is 0.0844.
The figure for TTCGAAAA is 0.11; for ATTTAGCA it is 0.0316; for TAGCAGAA it is -0.0035.
Consider AGGATGAG, for which the “PBM E-score” value came out at 0.125.
The figure for AGGGAGAC is 0.109.
Then CCTCTGGC, with -0.163; and ACGTGGAA, with -0.0267.
For AAGTAGTA, the “PBM E-score” value amounted to 0.0556.
On to ATACTCCC, for which the “PBM E-score” value was -0.0449.
As for CGCGAATC, the “PBM E-score” value amounted to 0.268.
In the case of ACCAAGAA, the “PBM E-score” value was 0.0785.
Then AATAGTAT, with 0.0632; and CAATGAAG, with 0.0402.
Then ATGGGGCC, with -0.122; and AACAGAGA, with 0.0575; and CTATGTTC, with -0.0468.
Then CCATCAAC, with 0.107.
On to AATAAGTC, for which the “PBM E-score” value turned out to be 0.255.
Then AGACCACT, with 0.00035; and GCCAGCGA, with -0.00963; and AACTTATT, with 0.225.
Then AACGGTTA, with -0.0539.
Consider ACACTAGC, for which the “PBM E-score” value is -0.199.
